Some of the results follow. One pool of 16,384 single-stranded DNAs met each Rep nickase domain in vitro (3 µM enzyme, 1 h, 37 °C); shown is the middle of each 90-letter strand. Uncut reads are compared with the no-enzyme pool on a log2 scale; uncut sequences lie near 0, cut ones below; no hit call is given. Counts are relative to all reads, so uncut sequences can rise above 0 when many others are cut.
Tests used:
Experiment in all cases: uncleaved DNA left, log2 of reads against the no-enzyme library (log2 ratio); higher = less cleavage (more negative = more Rep cleavage of the k-mer); sequences stand for … in CTCGTCCG…ACCGGAGA
[1] = test system: T1, Rep nickase domain of Muscovy duck circovirus
T1 sequence (protein, residues 1-111, tag omitted): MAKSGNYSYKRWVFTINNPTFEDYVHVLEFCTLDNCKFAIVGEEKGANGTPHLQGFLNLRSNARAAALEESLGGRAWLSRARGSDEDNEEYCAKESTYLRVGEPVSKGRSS
Method: (§1)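 A pool of 90-nt single-stranded DNAs with seven random bases just before the constant AC of the nick site (name = the seven bases) was cut by 3 µM recombinant His6-SUMO-tagged Rep nickase domain (300 nM DNA, 50 mM HEPES pH 8.0, 50 mM NaCl, 1 mM MnCl2, 1 h, 37 °C, three replicates). Uncut DNA was amplified and sequenced.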

[2] = test system: T2, Rep nickase domain of banana bunchy top virus
T2 sequence (protein, residues 1-94, tag omitted): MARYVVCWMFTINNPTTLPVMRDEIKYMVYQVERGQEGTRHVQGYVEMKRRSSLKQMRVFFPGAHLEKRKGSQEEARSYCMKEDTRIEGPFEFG
Method: as §1

[3] = test system: T3, Rep nickase domain of cabbage leaf curl virus
T3 sequence (protein, residues 1-116, tag omitted): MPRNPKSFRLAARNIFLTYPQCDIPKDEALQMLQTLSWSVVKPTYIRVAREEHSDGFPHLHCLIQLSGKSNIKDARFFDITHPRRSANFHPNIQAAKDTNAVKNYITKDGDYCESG
Method: as §1

[4] = test system: T4, Rep nickase domain of chickpea chlorotic dwarf virus
T4 sequence (protein, residues 1-124, tag omitted): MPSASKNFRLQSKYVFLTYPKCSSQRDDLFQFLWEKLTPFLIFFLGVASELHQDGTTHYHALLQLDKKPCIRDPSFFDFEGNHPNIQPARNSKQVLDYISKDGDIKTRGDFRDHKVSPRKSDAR
Method: as §1

[5] = test system: T5, Rep nickase domain of faba bean necrotic yellows virus
T5 sequence (protein, residues 1-98, tag omitted): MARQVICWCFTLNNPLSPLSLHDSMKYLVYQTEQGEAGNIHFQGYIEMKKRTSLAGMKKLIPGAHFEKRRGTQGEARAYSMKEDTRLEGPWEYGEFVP
Method: as §1

[6] = test system: T6, Rep nickase domain of maize striate mosaic virus
T6 sequence (protein, residues 1-117, tag omitted): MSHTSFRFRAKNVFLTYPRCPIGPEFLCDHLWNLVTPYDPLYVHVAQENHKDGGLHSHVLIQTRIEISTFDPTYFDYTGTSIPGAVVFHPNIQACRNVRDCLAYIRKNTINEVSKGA
Method: as §1

[7] = test system: T7, Rep nickase domain of porcine circovirus 2
T7 sequence (protein, residues 2-116, tag omitted): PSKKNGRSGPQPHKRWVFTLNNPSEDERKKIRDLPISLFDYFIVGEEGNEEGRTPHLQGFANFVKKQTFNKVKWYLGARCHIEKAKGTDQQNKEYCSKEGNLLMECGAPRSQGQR
Method: as §1

[8] = test system: T8, Rep nickase domain of tomato yellow leaf curl virus
T8 sequence (protein, residues 1-136, tag omitted): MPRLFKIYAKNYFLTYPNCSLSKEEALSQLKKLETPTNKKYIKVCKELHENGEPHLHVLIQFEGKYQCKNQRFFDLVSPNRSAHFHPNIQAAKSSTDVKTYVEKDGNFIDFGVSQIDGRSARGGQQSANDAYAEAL
Method: as §1

[9] = test system: T9, Rep nickase domain of wheat dwarf virus
T9 sequence (protein, residues 1-137, tag omitted): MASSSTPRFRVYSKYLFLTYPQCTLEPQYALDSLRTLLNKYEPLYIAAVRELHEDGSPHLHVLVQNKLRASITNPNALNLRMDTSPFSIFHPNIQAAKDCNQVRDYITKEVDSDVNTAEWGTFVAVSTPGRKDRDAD
Method: as §1

Sequence	uncleaved DNA left (log2) [1]	uncleaved DNA left (log2) [2]	uncleaved DNA left (log2) [3]	uncleaved DNA left (log2) [4]	uncleaved DNA left (log2) [5]	uncleaved DNA left (log2) [6]	uncleaved DNA left (log2) [7]	uncleaved DNA left (log2) [8]	uncleaved DNA left (log2) [9]
ATAGGGG	0.0739	0.0838	0.322	0.777	0.191	0.352	0.359	-0.0144	-0.000122
TTGAACT	-0.000197	-0.0797	-0.116	-2.5	0.00444	-0.232	-0.861	-0.0216	-0.0711
GACTCGC	0.0247	0.0884	-0.0214	0.0456	0.135	-0.549	-0.084	0.0173	0.0229
TAAATAT	-0.0437	-0.0893	-4.02	-3.27	-0.127	-2.52	-0.988	-0.0281	-3.6
AAGGAGT	0.0368	0.0152	0.216	1.35	0.0354	1.63	0.154	-0.118	-0.0578
GAGCAGC	0.133	0.0526	0.241	0.833	0.0487	0.429	0.295	0.00628	0.088
CAGTCCA	-0.114	-0.429	-0.15	-2.19	-0.614	-0.364	-2.86	0.072	0.0769
GCTTTCA	-0.00026	0.0607	0.232	0.162	0.00809	0.721	0.109	0.0837	0.122
GGAGGAG	0.0655	0.0271	0.323	0.948	-0.0267	0.658	0.197	0.0596	0.0532
TCAACGA	0.0348	-0.0889	-0.138	-0.796	0.0722	-0.916	0.0446	-0.147	-0.0884
GCCATCG	0.0654	-0.0518	-0.73	-0.215	0.0679	-0.781	0.15	0.0968	-0.177
GTATGGT	-0.464	-0.0319	0.228	0.466	0.012	1.5	-0.19	0.0028	0.035
GGGGGGC	0.0473	0.073	0.834	1.7	-0.0799	2.15	0.201	-0.0391	0.12
AGGTTTG	-0.111	-0.145	-0.208	-0.145	-0.0421	-0.408	-0.0554	-0.104	-0.105
GTCTGAG	-0.0737	0.0289	0.0362	0.479	-0.105	0.24	0.0967	-0.0258	-0.0184
CTAGAGT	0.0891	-0.231	-0.237	-0.379	0.0713	-0.662	-0.187	-0.158	-0.239

Sequence	uncleaved DNA left (log2) [1]	uncleaved DNA left (log2) [2]	uncleaved DNA left (log2) [3]	uncleaved DNA left (log2) [4]	uncleaved DNA left (log2) [5]	uncleaved DNA left (log2) [6]	uncleaved DNA left (log2) [7]	uncleaved DNA left (log2) [8]	uncleaved DNA left (log2) [9]
ATGTAAA	0.0983	0.0966	-0.0154	-0.0875	0.171	-0.389	0.0905	0.0491	0.101
GACAGGG	0.0892	0.117	0.0194	0.298	0.268	-0.451	0.254	0.176	0.0471
CGACCCC	-0.00591	-0.086	0.261	0.565	-0.054	0.529	-0.0446	0.0476	0.182
ACAGGAT	0.099	0.125	0.271	1.64	0.178	1.9	0.226	-0.0937	0.13
GCCGGCT	-0.0879	-0.0355	0.0693	0.179	0.0434	-0.0591	-0.00813	-0.114	-0.0233
TTGGTTT	0.0584	-0.0493	0.186	-0.845	-0.0609	0.468	-0.0164	-0.0172	-0.0111
ATATATC	0.0856	0.0498	-0.0181	0.0159	0.0583	-0.672	0.0114	0.043	0.0086
GAAATAG	0.0903	0.0309	-0.656	-0.519	0.0454	-0.942	0.196	0.0607	0.0139
AGCGGAC	0.00715	0.149	0.185	0.813	-0.127	1.18	0.0552	-0.0174	-0.115
CTTCCTT	-0.0305	0.0163	-0.0816	-2.3	-0.0478	-0.695	-0.549	0.028	-0.0427
TCTTACA	-0.248	0.0328	-0.993	-2.42	-0.124	-0.423	-1.88	-0.0239	-0.737
TGACTTG	0.0324	-0.235	-0.112	0.374	0.0439	1.08	-0.0538	-0.134	-0.0239
TGGCTAA	0.0187	0.0297	0.224	0.409	-0.0745	0.356	-0.111	-0.0306	0.112
CTCCTGC	0.036	-0.123	-0.507	-0.7	-0.116	-1.04	-0.146	-0.0214	0.0204
CCCTTGC	-0.178	-0.0254	-0.789	-0.454	-0.171	-1.03	-0.0858	-0.0491	-0.114
CAAATTT	-0.158	-0.632	-3.65	-3.46	0.0716	-2.35	-2.95	-0.0505	-3.63
